{"source": "the supplement of paper PMC10126150", "note": "Sequences with one replicate were seen in a single cluster, so their values are uncertain.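 Also: ATP exposure 15 min at 22 °C before imaging.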"}
{"test_system": "ATP", "test": "switch fluorescence ratio, 500 uM ATP over buffer (Cy3 cluster intensity, sum of 5 cycles each) (fold (ratio)); higher = stronger signal-on switching upon ATP binding; sequences stand for … in TCGTCGGCAGCGTCAGATGTGTATAAGAGACAGTTTTTTTTTTTTTTTTTTTTTTTTT…TC", "details": "aptamer strand: ATP DNA aptamer (quencher-CACCTGGGGGAGTATTGCGGAGGAAGG + anchor), 100 nM annealed; ATP concentration: 500 uM; one replicate", "how_it_was_run": "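Values give the fluorescence ratio for each switch-domain sequence, averaged from per-cluster ratios of summed target-cycle to summed buffer-cycle Cy3 intensity. The Cy3-labelled switching-strand clusters sat on a modified Illumina MiSeq flow-cell, were annealed to 100 nM quencher-labelled ATP aptamer, and were imaged in selection buffer, then after 15 min with 500 uM ATP at 22 °C. Five cycles ran with NaOH stripping and re-annealing between them, and clusters outside 100-1000 RFU were excluded.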"}
{"sequence": "GTCTTATGCT", "switch fluorescence ratio": 0.993}
{"sequence": "GTCTTTCCCT", "switch fluorescence ratio": 0.96}
{"sequence": "GTCTTTGG", "switch fluorescence ratio": 0.967}
{"sequence": "GTCTTTTACA", "switch fluorescence ratio": 1.02}
{"sequence": "GTGAAAAAAT", "switch fluorescence ratio": 0.992}
{"sequence": "GTGAAACGCA", "switch fluorescence ratio": 1.06}
{"sequence": "GTGAACCCTA", "switch fluorescence ratio": 1.04}
{"sequence": "GTGAAGAATA", "switch fluorescence ratio": 1.01}
{"sequence": "GTGAAGCGGG", "switch fluorescence ratio": 1.04}
{"sequence": "GTGAAGGGCA", "switch fluorescence ratio": 1.03}
{"sequence": "GTGAAGGTTC", "switch fluorescence ratio": 0.996}
{"sequence": "GTGAATATTA", "switch fluorescence ratio": 0.986}
{"sequence": "GTGACAGGAG", "switch fluorescence ratio": 1}
{"sequence": "GTGACAGGGC", "switch fluorescence ratio": 1.06}
{"sequence": "GTGACATATA", "switch fluorescence ratio": 1.08}
{"sequence": "GTGACTAAGA", "switch fluorescence ratio": 1.06}
{"sequence": "GTGACTTCGC", "switch fluorescence ratio": 1.29}
{"sequence": "GTGAGAGGCA", "switch fluorescence ratio": 1.05}
{"sequence": "GTGAGCGATT", "switch fluorescence ratio": 1.03}
{"sequence": "GTGAGGCAG", "switch fluorescence ratio": 1.01}
{"sequence": "GTGAGGCCCG", "switch fluorescence ratio": 1.03}
{"sequence": "GTGAGGGAAA", "switch fluorescence ratio": 0.965}
{"sequence": "GTGAGGGGG", "switch fluorescence ratio": 0.996}
{"sequence": "GTGAGTATGT", "switch fluorescence ratio": 0.982}
{"sequence": "GTGATAGGCC", "switch fluorescence ratio": 0.999}
{"sequence": "GTGATCCCGC", "switch fluorescence ratio": 1.11}
{"sequence": "GTGATCCGA", "switch fluorescence ratio": 0.964}
{"sequence": "GTGATCGTG", "switch fluorescence ratio": 0.973}
{"sequence": "GTGATGAAGT", "switch fluorescence ratio": 1.02}
{"sequence": "GTGATGCGAA", "switch fluorescence ratio": 1.04}
{"sequence": "GTGATTCCTA", "switch fluorescence ratio": 0.988}
{"sequence": "GTGATTTGGC", "switch fluorescence ratio": 0.966}
{"sequence": "GTGCAACTAT", "switch fluorescence ratio": 0.962}
{"sequence": "GTGCACCGGT", "switch fluorescence ratio": 0.992}
{"sequence": "GTGCACTGGT", "switch fluorescence ratio": 0.967}
{"sequence": "GTGCCAAGGA", "switch fluorescence ratio": 0.995}
{"sequence": "GTGCCCGCCA", "switch fluorescence ratio": 1.05}
{"sequence": "GTGCGAAT", "switch fluorescence ratio": 1}
{"sequence": "GTGCGGGAAC", "switch fluorescence ratio": 1.07}
{"sequence": "GTGCGGGGTG", "switch fluorescence ratio": 0.995}
{"sequence": "GTGCGTCGTC", "switch fluorescence ratio": 1}
{"sequence": "GTGCTAAGT", "switch fluorescence ratio": 0.951}
{"sequence": "GTGCTAATAT", "switch fluorescence ratio": 1.03}
{"sequence": "GTGCTCGGGT", "switch fluorescence ratio": 1}
{"sequence": "GTGCTGCAGG", "switch fluorescence ratio": 0.95}
{"sequence": "GTGCTGCTG", "switch fluorescence ratio": 1.1}
{"sequence": "GTGCTTTAAA", "switch fluorescence ratio": 0.961}
{"sequence": "GTGGAAAAGT", "switch fluorescence ratio": 0.972}
{"sequence": "GTGGAAACCT", "switch fluorescence ratio": 1.09}
{"sequence": "GTGGAAGAAG", "switch fluorescence ratio": 0.942}
{"sequence": "GTGGACACCG", "switch fluorescence ratio": 0.927}
{"sequence": "GTGGACAGCG", "switch fluorescence ratio": 1.02}
{"sequence": "GTGGATACCA", "switch fluorescence ratio": 0.978}
{"sequence": "GTGGATGGCA", "switch fluorescence ratio": 1.12}
{"sequence": "GTGGCAATTA", "switch fluorescence ratio": 1.17}
{"sequence": "GTGGCCCGTG", "switch fluorescence ratio": 1.03}
{"sequence": "GTGGCTAAAC", "switch fluorescence ratio": 1.03}
{"sequence": "GTGGCTCGCT", "switch fluorescence ratio": 0.942}
{"sequence": "GTGGCTCTAG", "switch fluorescence ratio": 0.966}
{"sequence": "GTGGCTTGGT", "switch fluorescence ratio": 1.06}
{"sequence": "GTGGGAACGA", "switch fluorescence ratio": 0.977}
{"sequence": "GTGGGAGATC", "switch fluorescence ratio": 1.51}
{"sequence": "GTGGGGAGGC", "switch fluorescence ratio": 0.953}
{"sequence": "GTGGGGGTAC", "switch fluorescence ratio": 1.01}
{"sequence": "GTGGGGTTGA", "switch fluorescence ratio": 0.984}
{"sequence": "GTGGGTACAG", "switch fluorescence ratio": 0.993}
{"sequence": "GTGGGTCAA", "switch fluorescence ratio": 1.02}
{"sequence": "GTGGGTGAAA", "switch fluorescence ratio": 0.979}
{"sequence": "GTGGGTGTTG", "switch fluorescence ratio": 1.02}
{"sequence": "GTGGGTTATG", "switch fluorescence ratio": 0.985}
{"sequence": "GTGGGTTCCG", "switch fluorescence ratio": 0.973}
{"sequence": "GTGGGTTGTC", "switch fluorescence ratio": 0.969}
{"sequence": "GTGGTCCGT", "switch fluorescence ratio": 0.941}
{"sequence": "GTGGTCGGAA", "switch fluorescence ratio": 0.999}
{"sequence": "GTGGTCGGG", "switch fluorescence ratio": 1.01}
{"sequence": "GTGGTCGGTC", "switch fluorescence ratio": 0.986}
{"sequence": "GTGGTCGTGG", "switch fluorescence ratio": 1}
{"sequence": "GTGGTGTAGT", "switch fluorescence ratio": 1.02}
{"sequence": "GTGGTGTCGG", "switch fluorescence ratio": 0.995}
{"sequence": "GTGGTTGCCC", "switch fluorescence ratio": 1}
{"sequence": "GTGTAACTTT", "switch fluorescence ratio": 0.986}
{"sequence": "GTGTAAGAGT", "switch fluorescence ratio": 0.997}
{"sequence": "GTGTAGGCA", "switch fluorescence ratio": 0.977}
{"sequence": "GTGTATATGT", "switch fluorescence ratio": 0.98}
{"sequence": "GTGTATCGGA", "switch fluorescence ratio": 0.981}
{"sequence": "GTGTATTGCG", "switch fluorescence ratio": 1.03}
{"sequence": "GTGTCAACGA", "switch fluorescence ratio": 0.966}
{"sequence": "GTGTCAGCTC", "switch fluorescence ratio": 1.01}
{"sequence": "GTGTCATGAA", "switch fluorescence ratio": 0.961}
{"sequence": "GTGTCCACCT", "switch fluorescence ratio": 1.06}
{"sequence": "GTGTCCGATA", "switch fluorescence ratio": 1.04}
{"sequence": "GTGTCGGACA", "switch fluorescence ratio": 1.02}
{"sequence": "GTGTCTAGAT", "switch fluorescence ratio": 0.988}
{"sequence": "GTGTGAATGC", "switch fluorescence ratio": 0.919}
{"sequence": "GTGTGACAAG", "switch fluorescence ratio": 1.01}
{"sequence": "GTGTGACGCA", "switch fluorescence ratio": 1.05}
{"sequence": "GTGTGAGCCC", "switch fluorescence ratio": 1.14}
{"sequence": "GTGTGAGGTA", "switch fluorescence ratio": 0.963}
{"sequence": "GTGTGCAAAG", "switch fluorescence ratio": 0.908}
{"sequence": "GTGTGCCGTA", "switch fluorescence ratio": 0.983}
{"sequence": "GTGTGGCGAC", "switch fluorescence ratio": 0.934}
{"sequence": "GTGTGGTATG", "switch fluorescence ratio": 0.972}
{"sequence": "GTGTTAACA", "switch fluorescence ratio": 1.01}
{"sequence": "GTGTTACCAG", "switch fluorescence ratio": 1.05}
{"sequence": "GTGTTAGCG", "switch fluorescence ratio": 1.01}
{"sequence": "GTGTTAGTAG", "switch fluorescence ratio": 1}
{"sequence": "GTGTTATTGG", "switch fluorescence ratio": 0.998}
{"sequence": "GTGTTCCCCT", "switch fluorescence ratio": 1.03}
{"sequence": "GTGTTCGT", "switch fluorescence ratio": 1.02}
{"sequence": "GTGTTGGGTT", "switch fluorescence ratio": 0.979}
{"sequence": "GTGTTTCAAA", "switch fluorescence ratio": 1.03}
{"sequence": "GTGTTTCGGT", "switch fluorescence ratio": 0.977}
{"sequence": "GTGTTTGCAG", "switch fluorescence ratio": 0.976}
{"sequence": "GTTAAATGAA", "switch fluorescence ratio": 1.02}
{"sequence": "GTTAAATGGA", "switch fluorescence ratio": 0.973}
{"sequence": "GTTAAGAAGG", "switch fluorescence ratio": 0.921}
{"sequence": "GTTAAGGCTC", "switch fluorescence ratio": 1}
{"sequence": "GTTAAGTAAA", "switch fluorescence ratio": 1.01}
{"sequence": "GTTAATTCAT", "switch fluorescence ratio": 0.982}
{"sequence": "GTTAATTGTA", "switch fluorescence ratio": 1.01}
{"sequence": "GTTACATTGC", "switch fluorescence ratio": 1.07}
{"sequence": "GTTACCACTT", "switch fluorescence ratio": 1.03}
{"sequence": "GTTACGAGTC", "switch fluorescence ratio": 0.993}
{"sequence": "GTTACGGAAC", "switch fluorescence ratio": 1.03}
{"sequence": "GTTACGTCAC", "switch fluorescence ratio": 1.76}
{"sequence": "GTTAGAAGAG", "switch fluorescence ratio": 0.987}
{"sequence": "GTTAGAGTAA", "switch fluorescence ratio": 0.978}
{"sequence": "GTTAGATGTA", "switch fluorescence ratio": 0.972}
{"sequence": "GTTAGCAAGT", "switch fluorescence ratio": 1.02}
{"sequence": "GTTAGCACCA", "switch fluorescence ratio": 0.985}
{"sequence": "GTTAGCACCG", "switch fluorescence ratio": 1.05}
{"sequence": "GTTAGCGTAA", "switch fluorescence ratio": 1.07}
{"sequence": "GTTAGGAATG", "switch fluorescence ratio": 0.982}
{"sequence": "GTTAGGCCCC", "switch fluorescence ratio": 1}
{"sequence": "GTTAGTAAAC", "switch fluorescence ratio": 1.04}
{"sequence": "GTTAGTTGC", "switch fluorescence ratio": 0.99}
{"sequence": "GTTATACTGA", "switch fluorescence ratio": 0.962}
{"sequence": "GTTATAGATA", "switch fluorescence ratio": 0.992}
{"sequence": "GTTATATCCC", "switch fluorescence ratio": 0.983}
{"sequence": "GTTATGAGAG", "switch fluorescence ratio": 0.974}
{"sequence": "GTTATTAAGA", "switch fluorescence ratio": 1.03}
{"sequence": "GTTATTAGTA", "switch fluorescence ratio": 0.966}
{"sequence": "GTTATTGGT", "switch fluorescence ratio": 0.991}
{"sequence": "GTTATTTAAG", "switch fluorescence ratio": 0.981}
{"sequence": "GTTCAAAACA", "switch fluorescence ratio": 0.985}
{"sequence": "GTTCAACCAT", "switch fluorescence ratio": 1}
{"sequence": "GTTCAATCCC", "switch fluorescence ratio": 1}
{"sequence": "GTTCATCTGT", "switch fluorescence ratio": 1.01}
{"sequence": "GTTCCAAGCT", "switch fluorescence ratio": 1.06}
{"sequence": "GTTCCAGTAC", "switch fluorescence ratio": 1.25}
{"sequence": "GTTCCCTAGT", "switch fluorescence ratio": 0.967}
{"sequence": "GTTCCTAAAC", "switch fluorescence ratio": 1.86}
{"sequence": "GTTCCTCCTG", "switch fluorescence ratio": 2.3}
